In the supplement of paper PMC4466236:
In all, about 33,000 sequences were measured (“E-score (dimensionless, -0.5 to 0.5)”: median about -0.058, highest 2% from about 0.35 on). This is one part of the list.

The sequences below were run on MvaT (assay: PBM 8-mer E-score (mean of HK and ME arrays) (E-score (dimensionless, -0.5 to 0.5)); higher = stronger relative binding preference; most listed sequences are background and not binding sites).
Summary of the method: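 Reported values are rank-based E-scores, taken as the mean of two universal arrays and parsed with a custom script. Each 8-mer score falls between -0.5 and 0.5. The arrays, ME and HK, were double-stranded 60-mers with a constant 25-mer primer region and a variable 35-mer region covering all 8-mers. They were probed, by an earlier protocol, with full-length P. aeruginosa MvaT carrying an N-terminal glutathione S-transferase fusion.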

Sequence | PBM 8-mer E-score
CACATGGA | 0.00819
CTCATAGA | -0.032
TATACTGA | 0.284
ACAAAGTG | 0.0626
ACAATCGA | 0.0252
ACGCGCGG | -0.234
ATTATTAA | 0.446
CACGCCGG | -0.154
TGAAAAAA | 0.15
ATGAGGAC | -0.0363
GCCATCGC | -0.219
CGTTTGCC | -0.163
AGATAATG | 0.295
GGACTCTA | -0.281
ACGGCGAG | -0.181
GCATACAA | 0.247
AACGGGAA | 0.108
ACGTGTAG | -0.148
ACCACGTG | -0.188
GCATCCCC | -0.212
AATGAAGT | 0.183
TCAAATGA | 0.116
ATATCGGG | 0.0544
AGTCACCC | -0.143
CGTCGGTA | -0.176

Sequence | PBM 8-mer E-score
GAATAAAA | 0.354
ACCAGCGC | -0.212
GCTTGATA | 0.0512
TCCTAAGA | -0.0438
ATATGATG | 0.261
GTTGTAAA | 0.205
AGGGCAGC | -0.326
AAACATGG | 0.0524
ATGCACAA | 0.187
TCGGCGAA | -0.111
GCTTGCCA | -0.216
AGCGCGCT | -0.0914
AGGTATTA | 0.264
ACTACTAG | 0.0778
CTACCGCA | -0.134
AAGAGGTG | -0.164
CATAATCG | 0.141
ATTAAGTC | 0.28
CTGAAGTC | -0.114
ACTCTAAA | 0.132
TTCCTAAA | 0.116
GCATCACC | -0.246
GGTGACAA | 0.0559
CTGAACGC | -0.144
CAATACGC | -0.0528

Sequence | PBM 8-mer E-score
CCGGCCGG | -0.304
AGAAGTCC | 0.00936
CCCGGCAA | -0.11
GCCCTGCC | -0.363
AGGTGAGG | -0.23
CAGGATGG | -0.189
TAGCGATA | 0.0958
AGGCGAAA | -0.177
CGGAGAGA | -0.145
AACCATGA | 0.0535
CAGGTTAC | -0.0018
AATGCATT | 0.28
ATCCAACG | -0.0255
ACACACTA | 0.245
GACGGGAC | -0.0757
GAATCCAA | -0.0958
AAGGAAAC | -0.0856
ACCCAGTG | -0.016
CGCGCTCA | -0.16
ATACGACC | -0.0941
AAGCGAAC | -0.0929
CGCCAGGA | -0.211
AGCGACGG | -0.116
ACGAGCAG | -0.147
AAATCATA | 0.267

Sequence | PBM 8-mer E-score
CTGGGCTA | -0.153
CTATTTCA | 0.00869
CACCGGAC | -0.199
ACCGTCGT | -0.051
CATCTTCC | -0.00584
ACATTGGC | -0.124
GTCGGTTA | 0.129
CGGGCGAA | -0.119
GGGCGAAC | -0.0666
AAGGGTCA | -0.0925
ATCTTCTA | 0.195
GCATTCCC | -0.185
TACCTCAA | 0.05
ACGGAAGC | -0.158
CACCCTGC | -0.106
TTGTGAAA | 0.136
ACATGATC | -0.155
AAGGTTTA | 0.193
CGCCAGCG | -0.0941
GACCAACC | -0.0441
AAAGCAGA | 0.014
CAAGAGGA | -0.0736
ACATACCC | 0.025
GCAAAGGA | -0.132
ATCAACTA | 0.201

Sequence | PBM 8-mer E-score
ATATTCCC | 0.225
GAATTGCC | 0.106
CGATTTAA | 0.238
CATTAAAC | 0.334
CTGTAACC | 0.00617
CAGGGATG | -0.221
AGTGGACC | -0.0337
AATGGGGC | -0.1
ATGTCCGA | -0.0808
AAAATATT | 0.435
GCTCTCCC | -0.363
GGGAGGGA | -0.229
ATTATGCA | 0.337
AAAGCATG | -0.0603
CCGGGAAA | -0.0199
GAGTAACA | 0.0497
CATAAATC | 0.163
GATTTGGA | -0.163
AAATCGCC | -0.0798
CAATCAAG | 0.103
CACAGTTA | 0.165
ATGTAGAA | 0.144
CGAAAAGA | 0.128
CGTTGCTC | -0.217
ATCCCGCG | -0.0399

Sequence | PBM 8-mer E-score
GTTGTAGA | 0.158
TGCAAACA | 0.106
ACTAGGCG | -0.11
CGAATCGA | 0.147
TGCGATAA | 0.0674
CGTACACA | 0.127
ATGTCACC | -0.0161
ACGATACC | -0.0898
CGTGTCTC | -0.0557
AAGCAGAT | -0.054
ATGCGTGC | -0.124
GAAAGCCA | -0.192
CTGTCACA | -0.122
AAAAATTA | 0.275
AAGGATCA | -0.139
ATGAAGAC | 0.0318
AACTTTAA | 0.385
TAGCTGGA | -0.302
GAATGTCC | -0.0827
CGTACGCC | -0.222
GGGAGCTA | -0.206
ATAAGGCA | 0.203
CTCGTGGA | -0.184
GAGCGTGA | -0.216
ATGAGTTG | 0.0506

Sequence | PBM 8-mer E-score
AGAAATGG | -0.162
CCCTCAGG | -0.177
ATGATGTC | -0.0953
ACTGAAAT | 0.0999
AGTTACTG | 0.282
CACAAGGC | -0.197
CAGGAGTC | -0.231
CCTGGCTA | -0.149
TGAGCTCA | -0.198
CACATGTG | -0.143
CATCAACA | 0.0618
AGACTGGA | 0.0474
AATGTCCG | 0.00803
GCGTGACC | -0.216
GAATATTC | 0.349
CGGTAAAA | 0.0627
GACCTGCC | -0.29
CACTAACG | -0.0868
CCTTCCTC | -0.356
CAATCTAG | 0.0954
CAACCGGA | -0.0151
AAGCCCAA | -0.138
CACAGAGA | 0.0304
AACGTGGC | -0.136
AGTATTAC | 0.306

Sequence | PBM 8-mer E-score
ACTCGGGA | -0.112
CGATCCGC | -0.158
CACTGCAG | -0.126
CCTAGACG | -0.198
CTAATTTA | 0.389
ATGGCGTG | -0.144
AGATTCGC | -0.144
ATACCACG | 0.121
CACTTTAA | 0.274
CGTGTACA | 0.00185
GTAAAAGA | 0.228
AACCAGTG | -0.161
CGAAGCAG | -0.254
TTCCTCAA | 0.077
ACAGCTGG | -0.158
ACCAAAGT | 0.168
GAACCTTC | -0.193
GAAAGCGC | -0.18
ACTGACGA | -0.0918
AGATACTC | 0.108
GCTGCCAC | -0.209
AAGGACAT | 0.009
GAAAAATA | 0.317
AGTCTCCG | -0.144
GCAGTGTA | -0.0294

Sequence | PBM 8-mer E-score
GAGTACTC | -0.143
ACAGGCCG | -0.147
AACACTCA | -0.0454
AGGAGCCA | -0.267
TGGTGGAA | -0.129
GATCGGCC | -0.194
GTATGCAC | 0.0491
CACTTTTC | 0.102
CCGCCGCG | -0.232
ATCCTTTG | -0.0516
ACCTTTTA | 0.217
ATGCCCGG | -0.154
AAAATCCT | 0.0802
CCTGGATA | 0.0126
CGTCAACG | -0.103
ACCAGCTC | -0.176
GATTGTGC | -0.0469
CCTGCCGC | -0.311
TCGGTAAA | -0.0432
ACATCGCG | 0.0109
TAAGTTAA | 0.426
ACCGGTTA | 0.00836
ACATTAAG | 0.265
CCCGCCGA | -0.214
ATAATCGC | 0.245

Sequence | PBM 8-mer E-score
GTTGGGTA | -0.0758
GGAGGCTA | -0.273
CCCAAGGC | -0.0976
GTGTTATA | 0.32
CCAAAAAG | 0.0756
AATTTTAC | 0.298
ACCACGGG | -0.272
AGCTGGTG | -0.102
CATTTAGG | -0.00624
CATGGCGG | -0.14
ATACAGAA | 0.158
CCGTGGCG | -0.194
CCTTAAAG | 0.0732
GATTATGA | 0.0705
CAAGTTCA | 0.295
CCGTTCGA | -0.198
CGCGGCTC | -0.284
CTGCAGAA | 0.0767
GCTTCGGA | -0.128
AACCACGA | -0.00994
CAGATGCA | -0.161
CTTGCAAA | 0.0517
GAATTGTA | 0.191
AGAAACAA | 0.229
CATAACCC | -0.0855

Sequence | PBM 8-mer E-score
AAGGCTTG | -0.164
CAACGTAC | -0.0278
CCCTCTTA | -0.148
ACGCATGC | -0.0147
CGATAGCG | -0.202
CCAGCGGA | -0.242
ACTAAATA | 0.31
AACATAGC | 0.0859
CACATCCA | 0.00683
GCATAGGC | -0.113
AGGGGTAT | -0.0392
CTATAATA | 0.42
CAAGCATA | 0.089
GTCGCGGA | -0.0294
GGATGTTA | 0.191
CTCGGAAA | 0.02
CTTGCAGA | -0.112
ACAACACT | 0.068
CCAAATAC | 0.0881
ACGCCGTA | -0.235
AATTAGCT | 0.231
GCCCCCCC | -0.303
GATATTCA | 0.0985
CTGCGGAA | -0.0896
AGCGCGAA | -0.0554

Sequence | PBM 8-mer E-score
TATTGACA | 0.261
ACGGATAT | 0.113
CCAGGTCC | -0.34
TCCTTGAA | -0.182
AGGGTTCG | -0.21
GACCAGCA | -0.151
AACACCGT | -0.00703
CTCTCACC | -0.137
ACAGCCCT | -0.193
CGACATCG | -0.131
GTTATCTA | 0.15
CGTGTCGA | -0.181
GCAATAAA | 0.214
AATATACG | 0.331
AGCCTACC | -0.129
CAGGCAAC | 0.0351
CATAACTC | 0.211
CGCATATC | 0.093
CAGGCTAC | -0.205
CTGGTCAC | -0.219
GCCCCAGA | -0.188
CCACACCC | -0.0379
CATGATCG | -0.131
TACTCCCA | 0.0718
ATAAATTC | 0.309

Sequence | PBM 8-mer E-score
AACAAGGT | 0.00606
AAGTCTAC | 0.033
CCGCACTC | -0.254
AAGCATAT | 0.177
AACCTTCA | -0.118
CGGCTAGA | -0.141
ACCGGACA | -0.188
CAAAGCCC | -0.279
AGGAGTTG | 0.01
ACGTGGAC | -0.0763
AACACTTC | 0.105
CCCCGCGC | -0.219
GCCCGGGA | -0.177
ACCACCCT | -0.0852
CTATGGGC | -0.116
ATCGGCAC | -0.14
GGCCTTCA | -0.202
AAATGGAG | -0.0705
CACGTATG | -0.0815
CGGAATCA | -0.0777
GCTTGTCA | -0.157
CTCCCACA | -0.175
CGTACCGC | -0.262
ACACGGGA | -0.209
AACCGACA | 0.108

Sequence | PBM 8-mer E-score
CAATTTGG | 0.0733
AGTTAATC | 0.169
AGTCAACG | -0.095
ATGGAACG | -0.0827
GAAAACAC | 0.0574
ATCCAGAC | -0.0115
GCACCAAA | 0.0418
CTTAGTAC | 0.202
AGAGGTGA | -0.197
ACGCCCTA | -0.0861
AGCCGTGA | -0.057
ACAGTTAA | 0.299
AGTTGCGG | 0.203
ATTAGGAC | 0.0658
TCTTACAA | 0.129
CAACGAAA | 0.0978
ACGGGAGG | -0.255
GTTAATCA | 0.183
CCAAGTTC | 0.0376
